Among the data in the supplement of paper PMC4604168 (melanoma cell lines) are cell count values, retold here.

Some of the results follow. Many values rest on one well or one pass, so single values are uncertain.
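Note: cell number obtained by counting DAPI-stained nuclei in high-throughput microscope images with image analysis software, screen run in 1,536-well plates.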

One assay deals with IST-MEL1. The experiment in a line: cell count relative to DMSO control; melanoma cells; higher = more viable cells. To be noted: library dose: low library concentration; 72 h.
In turn, `Cn1c(Nc2ccc(C(F)(F)F)cc2)nc2cc(Oc3ccnc(-c4ncc(C(F)(F)F)[nH]4)c3)ccc21` + COCC[n+]1c2c(n(Cc3cnccn3)c1C)C(=O)c1ccccc1C2=O [YM155] (first compound 0.08 µM, partner dose 0.0004 µM) gave a cell count of 75.5%.

`Clc1ccc(Nc2nnc(Cc3ccncc3)c3ccccc23)cc1` [vatalanib] + C=CCn1c(=O)c2cnc(Nc3ccc(N4CCN(C)CC4)cc3)nc2n1-c1cccc(C(C)(C)O)n1 [MK1775] (first compound 2 µM, partner dose 0.02 µM) displayed a cell count of 95%. Same read-out and setting: then `Clc1ccc(Nc2nnc(Cc3ccncc3)c3ccccc23)cc1` [vatalanib] + Nc1cccc2c1CN(C1CCC(=O)NC1=O)C2=O [lenalidomide] (first compound 2 µM, partner dose 1 µM), with 93.6%.

Another assay concerns LB2518-MEL. Described as above. The conditions noted are these: library dose: low library concentration; 72 h.
`OCc1c[nH]c2ccccc12` [Indole-3-carbinol] + COCC[n+]1c2c(n(Cc3cnccn3)c1C)C(=O)c1ccccc1C2=O [YM155] (first compound 0.8 µM, partner dose 0.0004 µM) came in with a cell count of 87.9%. On the same count and under the same terms, to `OCc1c[nH]c2ccccc12` [Indole-3-carbinol] + C[C@]1(c2nc3c(C(N)=O)cccc3[nH]2)CCCN1 [Veliparib] (first compound 0.8 µM, partner dose 1.4 µM) belongs 100%. As for `OCc1c[nH]c2ccccc12` [Indole-3-carbinol] + C#Cc1cccc(Nc2ncnc3cc(OCCOC)c(OCCOC)cc23)c1 [erlotinib] (first compound 0.8 µM, partner dose 0.8 µM), the cell count was found to be 90.4%. In turn, `C#Cc1cccc(Nc2ncnc3cc(OCCOC)c(OCCOC)cc23)c1` [erlotinib] + Cn1nnc2c(C(N)=O)ncn2c1=O [temozolomide] (first compound 0.8 µM, partner dose 2 µM) showed a cell count of 91.2%. On the same count and under the same terms, then `C#Cc1cccc(Nc2ncnc3cc(OCCOC)c(OCCOC)cc23)c1` [erlotinib] + Cc1nc(Nc2ncc(C(=O)Nc3c(C)cccc3Cl)s2)cc(N2CCN(CCO)CC2)n1 [dasatanib] (first compound 0.8 µM, partner dose 0.004 µM), with 92.1%; and `Cn1c(Nc2ccc(C(F)(F)F)cc2)nc2cc(Oc3ccnc(-c4ncc(C(F)(F)F)[nH]4)c3)ccc21` + Cn1nnc2c(C(N)=O)ncn2c1=O [temozolomide] (first compound 0.08 µM, partner dose 2 µM), with 40.4%; and `COCC[n+]1c2c(n(Cc3cnccn3)c1C)C(=O)c1ccccc1C2=O` + C[C@]1(c2nc3c(C(N)=O)cccc3[nH]2)CCCN1 [Veliparib] (first compound 0.0004 µM, partner dose 1.4 µM), with 95.4%. For `OCc1c[nH]c2ccccc12` [Indole-3-carbinol] + COc1cc(Nc2ncc(F)c(Nc3ccc4c(n3)NC(=O)C(C)(C)O4)n2)cc(OC)c1OC [Tamatinib] (first compound 0.8 µM, partner dose 0.4 µM), the cell count was found to be 90.6%.

For `Clc1ccc(Nc2nnc(Cc3ccncc3)c3ccccc23)cc1` [vatalanib] + C[C@@H]1CCN(C(=O)CC#N)C[C@@H]1N(C)c1ncnc2[nH]ccc12 [CP690550] (first compound 2 µM, partner dose 1 µM), the cell count came to 95.2%. In turn, `C#Cc1cccc(Nc2ncnc3cc(OCCOC)c(OCCOC)cc23)c1` [erlotinib] + COCC[n+]1c2c(n(Cc3cnccn3)c1C)C(=O)c1ccccc1C2=O [YM155] (first compound 0.8 µM, partner dose 0.0004 µM) came in with a cell count of 74.2%. For `Clc1ccc(Nc2nnc(Cc3ccncc3)c3ccccc23)cc1` [vatalanib] + COCC[n+]1c2c(n(Cc3cnccn3)c1C)C(=O)c1ccccc1C2=O [YM155] (first compound 2 µM, partner dose 0.0004 µM), the cell count is 101%. The compound `OCc1c[nH]c2ccccc12` [Indole-3-carbinol] + COc1ccc(Cl)c(Nc2nc3ccccc3nc2NS(=O)(=O)c2cccc(NC(=O)C(C)(C)N)c2)c1 [XL147] (first compound 0.8 µM, partner dose 0.8 µM) came in with a cell count of 95%. Still for that read-out and setting: to `Nc1cccc2c1CN(C1CCC(=O)NC1=O)C2=O` (stereo not given) [lenalidomide] + C[C@]1(c2nc3c(C(N)=O)cccc3[nH]2)CCCN1 [Veliparib] (first compound 1 µM, partner dose 1.4 µM) belongs 88%; to `COCC[n+]1c2c(n(Cc3cnccn3)c1C)C(=O)c1ccccc1C2=O` + O=C(CCCCCCC(=O)Nc1ccccc1)NO [vorinostat] (first compound 0.0004 µM, partner dose 0.08 µM), 91.9%. For the compound `OCc1c[nH]c2ccccc12` [Indole-3-carbinol] + Cn1c(Nc2ccc(C(F)(F)F)cc2)nc2cc(Oc3ccnc(-c4ncc(C(F)(F)F)[nH]4)c3)ccc21 [CHIR265] (first compound 0.8 µM, partner dose 0.08 µM), the cell count is 51.9%.

`COCC[n+]1c2c(n(Cc3cnccn3)c1C)C(=O)c1ccccc1C2=O` + Nc1cccc2c1CN(C1CCC(=O)NC1=O)C2=O [lenalidomide] (first compound 0.0004 µM, partner dose 1 µM) returned a cell count of 91.1%. The same measure, in the same setting: then `COCC[n+]1c2c(n(Cc3cnccn3)c1C)C(=O)c1ccccc1C2=O` + Cn1nnc2c(C(N)=O)ncn2c1=O [temozolomide] (first compound 0.0004 µM, partner dose 2 µM), with 72.3%; and `Clc1ccc(Nc2nnc(Cc3ccncc3)c3ccccc23)cc1` [vatalanib] + COc1ccc(Cl)c(Nc2nc3ccccc3nc2NS(=O)(=O)c2cccc(NC(=O)C(C)(C)N)c2)c1 [XL147] (first compound 2 µM, partner dose 0.8 µM), with 89.6%; and `Cn1c(Nc2ccc(C(F)(F)F)cc2)nc2cc(Oc3ccnc(-c4ncc(C(F)(F)F)[nH]4)c3)ccc21` + C[C@@H]1CCN(C(=O)CC#N)C[C@@H]1N(C)c1ncnc2[nH]ccc12 [CP690550] (first compound 0.08 µM, partner dose 1 µM), with 56.6%. The same measure, in the same setting: to `Clc1ccc(Nc2nnc(Cc3ccncc3)c3ccccc23)cc1` [vatalanib] + Cc1nc(Nc2ncc(C(=O)Nc3c(C)cccc3Cl)s2)cc(N2CCN(CCO)CC2)n1 [dasatanib] (first compound 2 µM, partner dose 0.004 µM) belongs 97.6%; to `C#Cc1cccc(Nc2ncnc3cc(OCCOC)c(OCCOC)cc23)c1` [erlotinib] + Nc1cccc2c1CN(C1CCC(=O)NC1=O)C2=O [lenalidomide] (first compound 0.8 µM, partner dose 1 µM), 103%; to `Clc1ccc(Nc2nnc(Cc3ccncc3)c3ccccc23)cc1` [vatalanib] + Cn1nnc2c(C(N)=O)ncn2c1=O [temozolomide] (first compound 2 µM, partner dose 2 µM), 88.6%. The same measure, in the same setting: then `Clc1ccc(Nc2nnc(Cc3ccncc3)c3ccccc23)cc1` [vatalanib] + C[C@]1(c2nc3c(C(N)=O)cccc3[nH]2)CCCN1 [Veliparib] (first compound 2 µM, partner dose 1.4 µM), with 107%; and `C#Cc1cccc(Nc2ncnc3cc(OCCOC)c(OCCOC)cc23)c1` [erlotinib] + C[C@]1(c2nc3c(C(N)=O)cccc3[nH]2)CCCN1 [Veliparib] (first compound 0.8 µM, partner dose 1.4 µM), with 88.3%; and `OCc1c[nH]c2ccccc12` [Indole-3-carbinol] + Cn1nnc2c(C(N)=O)ncn2c1=O [temozolomide] (first compound 0.8 µM, partner dose 2 µM), with 102%. `Cn1c(Nc2ccc(C(F)(F)F)cc2)nc2cc(Oc3ccnc(-c4ncc(C(F)(F)F)[nH]4)c3)ccc21` + Nc1cccc2c1CN(C1CCC(=O)NC1=O)C2=O [lenalidomide] (first compound 0.08 µM, partner dose 1 µM) displayed a cell count of 59.9%. For the compound `Nc1cccc2c1CN(C1CCC(=O)NC1=O)C2=O` (stereo not given) [lenalidomide] + Cn1nnc2c(C(N)=O)ncn2c1=O [temozolomide] (first compound 1 µM, partner dose 2 µM), the cell count stood at 110%. In the case of `O=C(CCCCCCC(=O)Nc1ccccc1)NO` [vorinostat] + COc1cc(Nc2ncc(F)c(Nc3ccc4c(n3)NC(=O)C(C)(C)O4)n2)cc(OC)c1OC [Tamatinib] (first compound 0.08 µM, partner dose 0.4 µM), the cell count amounted to 89%. Same read-out and setting: to `Cn1c(Nc2ccc(C(F)(F)F)cc2)nc2cc(Oc3ccnc(-c4ncc(C(F)(F)F)[nH]4)c3)ccc21` + Cn1cncc1[C@@](N)(c1ccc(Cl)cc1)c1ccc2c(c1)c(-c1cccc(Cl)c1)cc(=O)n2C [tipifarnib] (first compound 0.08 µM, partner dose 0.01 µM) belongs 55%; to `C#Cc1cccc(Nc2ncnc3cc(OCCOC)c(OCCOC)cc23)c1` [erlotinib] + Cn1c(Nc2ccc(C(F)(F)F)cc2)nc2cc(Oc3ccnc(-c4ncc(C(F)(F)F)[nH]4)c3)ccc21 [CHIR265] (first compound 0.8 µM, partner dose 0.08 µM), 62.3%; to `Clc1ccc(Nc2nnc(Cc3ccncc3)c3ccccc23)cc1` [vatalanib] + C#Cc1cccc(Nc2ncnc3cc(OCCOC)c(OCCOC)cc23)c1 [erlotinib] (first compound 2 µM, partner dose 0.8 µM), 90.7%. The compound `OCc1c[nH]c2ccccc12` [Indole-3-carbinol] + Nc1cccc2c1CN(C1CCC(=O)NC1=O)C2=O [lenalidomide] (first compound 0.8 µM, partner dose 1 µM) yielded a cell count of 110%.
